{"source": "PubChem BioAssay AID686979", "about": "(National Center for Advancing Translational Sciences (NCATS), 2013)", "note": "Hit rate of the full screen: of about 420,000 compounds, about 50,000 (12%) were called active. This list was built around the results that the source calls inconclusive (neither active nor inactive); the mix of calls is not that of the screen. Calls come from the whole dose curve; as a rule, active = well fitted inhibition curve with a large enough effect; inconclusive = small, poorly fitted or top-dose-only effect; inactive = flat fitted curve, though single readings scatter. No potency is given beside an inconclusive call; the fits are too rough.", "data": [{"assay": "qHTS for Inhibitors of human tyrosyl-DNA phosphodiesterase 1 (TDP1): qHTS in cells in presence of CPT; note: potency is the fitted concentration of half-maximal effect; nearly all actives have a fitted effect of over 55% in size; tags give direction and shape of the fitted curve", "details": "chicken DT40 Tdp1-/-;hTDP1 cells + 20 nM CPT, ATP luminescence, 48 h; series mostly up to 46.2 µM", "excerpt": "Human tyrosyl-DNA phosphodiesterase 1 (TDP1) is a novel repair gene, and we propose to use it as a new target for anticancer drug development. TDP1 is not an essential protein, but under treatment with topoisomerase I poison (camptothecin: CPT), TDP1 works as a critical factor for cell survival. To directly identify novel TDP1 inhibitors active in a cellular environment, we have knocked-out the Tdp1 gene in chicken DT40 cells (Tdp1-/-) and generated a complemented counterpart cells that contains a stable transfection of the human TDP1 gene (Tdp1-/-;hTDP1 cells). For the primary screen, Tdp1-/-;hTDP1 cells will be exposed to small molecules in the presence or absence of CPT, and their growth kinetics will be evaluated after 48 hours by measuring ATP activity. […] The hit compounds will then be evaluated in the presence or absence of CPT using Tdp1-/- cells. […]\nDT40-hTDP1 cells with 20 nM Camptothecin (add 20 microL of 1 mM CPT stock in 1 L of cell culture medium) were dispensed at 400 cells/5microL/well in tissue culture treated 1536-well white wall/solid bottom assay plates (Greiner Bio-One North America, NC, U.S.A.) using a Multidrop Combi 8 channel dispenser (Thermo Fisher, Waltham, MA, USA). […] Luminescence was read using ViewLux (Perkin Elmer) with 1 sec exposure slow speed, high gain and 2x binning.", "values": [{"compound": "Cc1cc(N2C(=O)C(O)=C(C(=O)c3cc4ccccc4o3)C2c2cccc(Br)c2)no1", "note": "(stereo unspecified)", "Potency": "inconclusive [inhibitor, single point]"}]}]}
